Residue numbers refer to the chain shown, from its start. The list shows a part of the results.

Data on 31 molecules can be found in publication PMC9911399, “Two distinct binding modes provide the RNA-binding protein RbFox with extraordinary sequence specificity”.

T1: RBFOX1 RRM RbFoxmut (Fox-RRM*) (Homo sapiens, UniProt Q9NWB1 109-208, R118D;E147R;N151S;E152T)
T1 sequence: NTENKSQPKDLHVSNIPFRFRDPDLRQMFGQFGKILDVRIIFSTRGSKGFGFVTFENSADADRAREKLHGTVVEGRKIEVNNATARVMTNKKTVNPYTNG

B1: UAAAAGG (DNA:RNA)
RNA: GGGAGACCGGAAUUCAGAUUGUCCUAAAAGGUUAAAUCCCGUCGUAGCCACCA
DNA 1: CAATCTGAATTCCGGTCTCCC
DNA 2: TGGTGGCTACGACGGGATT
B2: AGCCACA (DNA:RNA)
RNA: B1 RNA with U25A, A26G, A27C, A28C, G30C, G31A
DNA 1: CAATCTGAATTCCGGTCTCCC
DNA 2: TGGTGGCTACGACGGGATT
B3: UUUGGUG (DNA:RNA)
RNA: B1 RNA with A26U, A27U, A28G, A29G, G30U
DNA 1: CAATCTGAATTCCGGTCTCCC
DNA 2: TGGTGGCTACGACGGGATT
B4: GUCAAGG (DNA:RNA)
RNA: B1 RNA with U25G, A26U, A27C
DNA 1: CAATCTGAATTCCGGTCTCCC
DNA 2: TGGTGGCTACGACGGGATT
B5: AAACAUG (DNA:RNA)
RNA: B1 RNA with U25A, A28C, G30U
DNA 1: CAATCTGAATTCCGGTCTCCC
DNA 2: TGGTGGCTACGACGGGATT
B6: CAAUUCC (DNA:RNA)
RNA: B1 RNA with U25C, A28U, A29U, G30C, G31C
DNA 1: CAATCTGAATTCCGGTCTCCC
DNA 2: TGGTGGCTACGACGGGATT
B7: GUCAGAC (DNA:RNA)
RNA: B1 RNA with U25G, A26U, A27C, A29G, G30A, G31C
DNA 1: CAATCTGAATTCCGGTCTCCC
DNA 2: TGGTGGCTACGACGGGATT
B8: UCUUUUG (DNA:RNA)
RNA: B1 RNA with A26C, A27U, A28U, A29U, G30U
DNA 1: CAATCTGAATTCCGGTCTCCC
DNA 2: TGGTGGCTACGACGGGATT
B9: CGAUCCG (DNA:RNA)
RNA: B1 RNA with U25C, A26G, A28U, A29C, G30C
DNA 1: CAATCTGAATTCCGGTCTCCC
DNA 2: TGGTGGCTACGACGGGATT
B10: GACUAUU (DNA:RNA)
RNA: B1 RNA with U25G, A27C, A28U, G30U, G31U
DNA 1: CAATCTGAATTCCGGTCTCCC
DNA 2: TGGTGGCTACGACGGGATT
B11: UCGGUUU (DNA:RNA)
RNA: B1 RNA with A26C, A27G, A28G, A29U, G30U, G31U
DNA 1: CAATCTGAATTCCGGTCTCCC
DNA 2: TGGTGGCTACGACGGGATT
B12: ACAAUGG (DNA:RNA)
RNA: B1 RNA with U25A, A26C, A29U
DNA 1: CAATCTGAATTCCGGTCTCCC
DNA 2: TGGTGGCTACGACGGGATT
B13: GUCCGCG (DNA:RNA)
RNA: B1 RNA with U25G, A26U, A27C, A28C, A29G, G30C
DNA 1: CAATCTGAATTCCGGTCTCCC
DNA 2: TGGTGGCTACGACGGGATT
B14: AGCCUGU (DNA:RNA)
RNA: B1 RNA with U25A, A26G, A27C, A28C, A29U, G31U
DNA 1: CAATCTGAATTCCGGTCTCCC
DNA 2: TGGTGGCTACGACGGGATT
B15: UGAAUCC (DNA:RNA)
RNA: B1 RNA with A26G, A29U, G30C, G31C
DNA 1: CAATCTGAATTCCGGTCTCCC
DNA 2: TGGTGGCTACGACGGGATT
B16: AUCCACC (DNA:RNA)
RNA: B1 RNA with U25A, A26U, A27C, A28C, G30C, G31C
DNA 1: CAATCTGAATTCCGGTCTCCC
DNA 2: TGGTGGCTACGACGGGATT
B17: UCGCACG (DNA:RNA)
RNA: B1 RNA with A26C, A27G, A28C, G30C
DNA 1: CAATCTGAATTCCGGTCTCCC
DNA 2: TGGTGGCTACGACGGGATT
B18: CUCAAUU (DNA:RNA)
RNA: B1 RNA with U25C, A26U, A27C, G30U, G31U
DNA 1: CAATCTGAATTCCGGTCTCCC
DNA 2: TGGTGGCTACGACGGGATT
B19: CAUUAAA (DNA:RNA)
RNA: B1 RNA with U25C, A27U, A28U, G30A, G31A
DNA 1: CAATCTGAATTCCGGTCTCCC
DNA 2: TGGTGGCTACGACGGGATT
B20: GUUGUUA (DNA:RNA)
RNA: GGGAGACCGGAAUUCAGAUUGUCCGUUGUUAUUAAAUCCCGUCGUAGCCACCA
DNA 1: CAATCTGAATTCCGGTCTCCC
DNA 2: TGGTGGCTACGACGGGATT
B21: AGCGCAA (DNA:RNA)
RNA: B20 RNA with G25A, U26G, U27C, U29C, U30A
DNA 1: CAATCTGAATTCCGGTCTCCC
DNA 2: TGGTGGCTACGACGGGATT
B22: GGUGAGA (DNA:RNA)
RNA: B20 RNA with U26G, U29A, U30G
DNA 1: CAATCTGAATTCCGGTCTCCC
DNA 2: TGGTGGCTACGACGGGATT
B23: CGAUCGG (DNA:RNA)
RNA: B1 RNA with U25C, A26G, A28U, A29C
DNA 1: CAATCTGAATTCCGGTCTCCC
DNA 2: TGGTGGCTACGACGGGATT
B24: UUCAGGC (DNA:RNA)
RNA: B1 RNA with A26U, A27C, A29G, G31C
DNA 1: CAATCTGAATTCCGGTCTCCC
DNA 2: TGGTGGCTACGACGGGATT
B25: CCUGUGC (DNA:RNA)
RNA: B20 RNA with G25C, U26C, U30G, A31C
DNA 1: CAATCTGAATTCCGGTCTCCC
DNA 2: TGGTGGCTACGACGGGATT
B26: GAGGCGG (DNA:RNA)
RNA: B1 RNA with U25G, A27G, A28G, A29C
DNA 1: CAATCTGAATTCCGGTCTCCC
DNA 2: TGGTGGCTACGACGGGATT
B27: GCGUUAC (DNA:RNA)
RNA: B20 RNA with U26C, U27G, G28U, U30A, A31C
DNA 1: CAATCTGAATTCCGGTCTCCC
DNA 2: TGGTGGCTACGACGGGATT
B28: UGUUUGA (DNA:RNA)
RNA: B20 RNA with G25U, U26G, G28U, U30G
DNA 1: CAATCTGAATTCCGGTCTCCC
DNA 2: TGGTGGCTACGACGGGATT
B29: CCUACCA (DNA:RNA)
RNA: B20 RNA with G25C, U26C, G28A, U29C, U30C
DNA 1: CAATCTGAATTCCGGTCTCCC
DNA 2: TGGTGGCTACGACGGGATT
B30: UGAAAAG (DNA:RNA)
RNA: B1 RNA with A26G, G30A
DNA 1: CAATCTGAATTCCGGTCTCCC
DNA 2: TGGTGGCTACGACGGGATT
B31: ACAUGCC (DNA:RNA)
RNA: B1 RNA with U25A, A26C, A28U, A29G, G30C, G31C
DNA 1: CAATCTGAATTCCGGTCTCCC
DNA 2: TGGTGGCTACGACGGGATT

The target in this experiment is T1, RBFOX1 RRM RbFoxmut (Fox-RRM*). Kind of experiment: EMSA; HiTS-Eq, 1 nM pool, 10 min; buffer printed only for the single-RNA assays: 10 mM Tris pH 7.5, 150 mM NaCl, 3.4 mM EDTA, 0.001% NP-40, 30 C. The following applies: tags: His6 N-terminal (pET28a); label: 5' 32P. In a few lines: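 Purified RbFox RRM (wild type or mutant) was equilibrated for 10 min in 50 µL with 1 nM of a 5′-radiolabelled pool of RNA with 7 randomized nucleotides, its flanks annealed to DNA oligonucleotides, across increasing protein concentrations. Free RNA was separated by 8% native PAGE, excised, reverse-transcribed, PCR-barcoded and sequenced on an Illumina HiSeq 2500. Relative association constants came from read-count changes of each variant against the control reaction, normalised to the cognate motif.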
Take B1: the binding signal is 0.07 KA relative to UGCAUGU. Next, B2: 0.0933 KA relative to UGCAUGU; B3: 0.136 KA relative to UGCAUGU; B4: 0.0815 KA relative to UGCAUGU. As for B5, the binding signal is 0.0957 KA relative to UGCAUGU.

As for B6, the binding signal is 0.0801 KA relative to UGCAUGU. The value for B7 was 0.0721 KA relative to UGCAUGU; that for B8 was 0.118 KA relative to UGCAUGU; that for B9 was 0.0617 KA relative to UGCAUGU. Take B10: the binding signal is 0.0993 KA relative to UGCAUGU.

As for B11, the binding signal was 0.0927 KA relative to UGCAUGU. The value for B12 was 0.0841 KA relative to UGCAUGU; that for B13 was 0.0851 KA relative to UGCAUGU; that for B14 was 0.118 KA relative to UGCAUGU. Next, B15: 0.172 KA relative to UGCAUGU. The value for B16 was 0.0787 KA relative to UGCAUGU; that for B17 was 0.272 KA relative to UGCAUGU.

As to B18, the binding signal is 0.0583 KA relative to UGCAUGU. B19: the binding signal was 0.134 KA relative to UGCAUGU. B20: the binding signal is 0.153 KA relative to UGCAUGU.

Turning to B21, the binding signal was 0.0674 KA relative to UGCAUGU.

In the case of B22, the binding signal is 0.084 KA relative to UGCAUGU. In the case of B23, the binding signal is 0.102 KA relative to UGCAUGU. Next, B24: 0.0937 KA relative to UGCAUGU; B25: 0.135 KA relative to UGCAUGU; B26: 0.083 KA relative to UGCAUGU. Next, B27: 0.0831 KA relative to UGCAUGU. The value for B28 was 0.319 KA relative to UGCAUGU; that for B29 was 0.0784 KA relative to UGCAUGU; that for B30 was 0.0783 KA relative to UGCAUGU.

For the molecule B31, the binding signal is 0.151 KA relative to UGCAUGU.
